From PubChem BioAssay AID2202238 (Ras Initiative Chemistry Research Team, Frederick National …, 2025)
Some of the results follow. The main result of the screen is listed elsewhere. These columns were measured beside it and carry no call.

Molecular target: GTPase KRas (Homo sapiens) (UniProt P01116)
Test: Cysteine mutants labelled by reactive fragments (mass read-out) (AID 2202238)
Design: protein at 5 µM with 500 µM competing thiol for 1.5 h
Settings: KRAS G12D cysteine mutants, disulfide tethering, MALDI-TOF labeling, stronger effect = higher value, fragment at 500 µM
[1] = measured here: G60C mutant labeling
[2] = measured here: G75C mutant labeling
[3] = measured here: H94C mutant labeling
[4] = measured here: I36C mutant labeling
[5] = measured here: L120C mutant labeling
[6] = measured here: M67C mutant labeling
[7] = measured here: M72C mutant labeling
[8] = measured here: N26C mutant labeling
[9] = measured here: N86C mutant labeling
[10] = measured here: P121C mutant labeling
[11] = measured here: S122C mutant labeling
[12] = measured here: S136C mutant labeling

Chain of UniProt P01116 (P01116 whole entry, looked up, the tested form may be a part): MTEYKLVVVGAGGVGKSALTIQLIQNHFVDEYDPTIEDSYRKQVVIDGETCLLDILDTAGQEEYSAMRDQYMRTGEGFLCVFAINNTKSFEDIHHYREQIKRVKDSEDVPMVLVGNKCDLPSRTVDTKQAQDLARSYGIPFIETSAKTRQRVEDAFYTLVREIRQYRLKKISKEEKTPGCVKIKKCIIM

Structure (SMILES)	percent labeling [1] [%]	percent labeling [2] [%]	percent labeling [3] [%]	percent labeling [4] [%]	percent labeling [5] [%]	percent labeling [6] [%]	percent labeling [7] [%]	percent labeling [8] [%]	percent labeling [9] [%]	percent labeling [10] [%]	percent labeling [11] [%]	percent labeling [12] [%]
COc1ccccc1OCCC(=O)NCCS	56.1	17.2	33.7	27	49.8	36.8	33	43.1	25.3	35.6	35.2	49.6
CCc1[nH]cnc1C(=O)NCCS	28.9	24.1	36	23.2	36.8	29.9	31.5	33.2	30.9	27.1	29.1	36.1
Cc1cc(C(=O)NCCS)nc(C(F)(F)F)n1	34.1	19.9	30.5	20.2	33.9	26.9	31	34.6	16.2	26.3	25.9	45.5
O=C(NCCS)c1c(F)cccc1-n1cccn1	33.6	13.7	37.7	30.2	35.1	31.1	28	32.4	32.5	38.8	30.1	43.4
O=C(NCCS)C1(c2nccc3ccccc23)CC1	50.1	18	39.6	28.9	40.1	46.2	27.2	38.3	22.1	29.7	28.9	68.8
CCn1c2ccccc2c2cc(CN(C)C(=O)CCS)ccc21		16	25.8	19.8	11.8	18.4	42.1		19.2	15	7.7	28
O=C(NCCS)[C@@H]1CCCC[C@@H]1C(F)(F)F	49.1	17.6	27.7	21.9	28.9	25.4	24.2	35.8	46.4	28.8	33.6	38.3
O=C(CCS)NC1CC12CCc1cc(Br)ccc12 (stereo not given)		13.9	27.7	23.2	10.6	15.2	32		17.1	16.5	7.4	31.7
CC(C)(C)Cn1c(=O)[nH]c2c(C(=O)NCCS)cccc21	22.2	14	15.6	12.1	15.6	13	28.4	35.2	11.3	14.1	9.8	20.4
Cc1cnn(-c2cccc(C(=O)NCCS)c2)c1	22.3	11.2	15.7	12.1	15.6	10.1	37.3	36.8	12.8	12.5	10.4	25.8
CCN(CC(=O)Nc1ccccc1C(F)(F)F)C(=O)CCS		11.3	30.7	26.9	35.8	33.5	28.1		23.8	28.2	31.3	46.6
O=C(CCS)NCC1CN(C2CC2)C(=O)O1 (stereo not given)		8.4	29.9	39.3	23.3	39.1	15.4		14.8	39.9	38.9	50.2
CCOc1cc(C#N)cc(Br)c1OCC(=O)NCCS	26.2	10.5	12.7	6.5	8.5	8.1	20	20.5	7	7.3	5	16.6
Cn1ncc2nc(C(F)F)c(NC(=O)CCS)cc21		17.9	32.4	44.3	27.8	35.5	41.4		38.1	27.6	30.5	52.2
O=C(NCCS)C1CN(C(=O)C2CCCCC2)C1	25.2	14.1	27.7	24.5	38.4	26.4	15.6	33.7	21	30.7	30.6	42.1
Cc1noc(CC2(NC(=O)CCS)CC2)n1		0	21.9	33.4	14.4	27.4	8.8		18.2	30.4	32	40.4
O=C(NCCS)c1cccc(Nc2ncnc3ccccc23)c1	12.7	8	9.8	9	8	11.1	23.1	33.7	8.1	7.3	4.2	13.1
O=C(CCS)NCc1ccnn1C1CCCCC1		21.4	40.1	35.1	27.2	38.4	26.7		25.9	35.7	37.6	57.2
Cc1nc2cc(F)c(F)cc2n1CC(=O)NCCS	48.3	21.5	36	36.7	47.7	36.1	56.8	45.5	29.8	30.5	28.1	40.6
O=C(NCCS)C1CC12CCc1cc(Br)ccc12 (stereo not given)	45.3	28.1	25.8	12.4	15.5	10.5	33.2	29.3	11.7	27.6	6	15.6
Cn1nc(C(=O)NCCS)cc1-c1ccc(Cl)cc1	18.3	9.2	11.5	8.9	15.5	10.6	40.5	26.4	12	12	9.4	16.5
CCn1cccc(CNC(=O)CCS)c1=O		11.4	28	37.4	28.5	33.8	17.4		25.6	34.7	34.3	53.7
COc1cc2c(cc1OC)CN(CC(=O)NCCS)CC2	44.8	20.7	36.9	36.7	52.6	37.7	35.2	41.4	23.1	30.9	23.7	47.6
